According to PubChem BioAssay AID485281 (National Center for Advancing Translational Sciences (NCATS), 2010):
Screen size: about 350,000 compounds; about 260 (0.074%) were called active. Inconclusive means that the source gave no clear call. Such entries were picked first, then a sample of the others. Calls follow the shape of the dose curve; as a rule, active = well fitted inhibition curve with a large enough effect; inconclusive = small, poorly fitted or top-dose-only effect; inactive = no such curve, though single readings can be large or run the other way. Potencies of inconclusive entries are doubtful fits and often do not repeat.

Biological target: Ferritin light chain (Equus caballus) (UniProt P02791)
Sequence of UniProt P02791 (P02791 whole entry, looked up): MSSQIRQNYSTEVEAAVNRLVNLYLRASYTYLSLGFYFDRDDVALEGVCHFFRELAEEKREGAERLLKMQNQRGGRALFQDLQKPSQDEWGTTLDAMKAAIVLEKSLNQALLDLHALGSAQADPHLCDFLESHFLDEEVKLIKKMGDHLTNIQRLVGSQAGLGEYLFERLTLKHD
Test: qHTS Assay for Identification of Novel General Anesthetics; also: nearly all actives have a fitted effect of over 20% in size
Conditions: apoferritin/1-aminoanthracene competitive binding, fluorescence; activity change, negative = displacement: at 77.5 µM (top of the series)
Method in brief: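 Horse-spleen apoferritin (10 uM) was mixed with 50% saturated 1-aminoanthracene in PBS, exposed to compounds for 10 min at room temperature, and read for fluorescence (ex 380 nm, em 535 nm). Competitive displacement was fitted with a four-parameter Hill equation.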
% is scaled to controls: 0 for no effect and ±100 for the full control effect; potency is read from the fitted curve at half-maximal effect; tags tell the direction and shape of the fitted curve.

Row | SMILES | Potency | activity change, negative = displacement
1 | CCOCCc1nn2c(=O)cc(COC(=O)COc3ccccc3Cl)nc2s1 | inconclusive: 22.4 µM [inhibitor, partial curve] | –
2 | COc1ccccc1N1CCN(C(c2ccc(C)cc2)c2nnnn2C(C)C)CC1 (stereo not drawn) | inconclusive: 44.7 µM [inhibitor, single point] | –
3 | O=C(c1cnc2cc(-c3ccccc3)nn2c1)c1cc([N+](=O)[O-])ccc1O | inconclusive: 25.1 µM [inhibitor, partial curve] | –
4 | CCc1ccc(CSc2nc(-c3ccccc3OC)nc3c2Cc2c(CO)cnc(C)c2O3)cc1 | inconclusive: 20 µM [inhibitor, partial curve] | –
5 | CCCN1CCC(=NNC(=O)CSc2cc(C)c(Br)cc2C)CC1 | inconclusive: 17.8 µM [inhibitor, partial curve] | –
6 | O=S(=O)(NCC(O)c1ccccc1)c1cc(Cl)sc1Cl (stereo not drawn) | inconclusive: 35.5 µM [inhibitor, partial curve] | –
7 | COc1ccc(CC(=O)Nc2cccc(-c3nnc(-c4ccco4)o3)c2)cc1 | inconclusive: 35.5 µM [inhibitor, partial curve] | –
8 | O=C(CSC1=NCCS1)Nc1nc2c(s1)CCCC2 | inconclusive: 28.2 µM [inhibitor, partial curve] | –
9 | Cc1ccc(-c2nn(-c3ccccc3)cc2/C=N/NC(=O)CSc2nnc(C)n2-c2ccccc2)cc1 | inconclusive: 2.82 µM [inhibitor, full curve, poor fit] | –
10 | S=C(NCc1ccco1)Nc1cccc(Cl)c1 | – | inactive: -7.24%
11 | CC(C)CN1C(=O)CC(Sc2ccccc2C(=O)O)C1=O (stereo not drawn) | inconclusive: 35.5 µM [inhibitor, partial curve] | –
12 | COc1ccccc1-n1c(=O)oc2ccc(Cl)cc2c1=O | inconclusive: 28.2 µM [inhibitor, partial curve] | –
13 | Cc1ccc(N(C(=O)Cc2cccs2)C(C(=O)NC2CCCC2)c2ccncc2)cc1 (stereo not drawn) | – | inactive: -6.28%
14 | NC(=O)c1ccc(Oc2ccc3c(c2)CCC3)c([N+](=O)[O-])c1 | inconclusive: 28.2 µM [inhibitor, single point] | –
15 | CCOC(=O)Cn1c(=O)n(CC2CCCO2)c2nc(-c3ccc(CC)cc3)nc(C(N)=O)c21 (stereo not drawn) | inconclusive: 5.01 µM [inhibitor, full curve] | –
16 | COc1ccccc1CC(=O)NC1CCCCCC1 | inconclusive: 25.1 µM [inhibitor, partial curve] | –
17 | CC(C)(C)c1ccc(-c2nc(NCc3cccnc3)c3ccccc3n2)cc1 | inconclusive: 39.8 µM [inhibitor, single point] | –
18 | Cc1cccc(/C=C/c2onc(C)c2S(=O)(=O)N2CCC(C(=O)N3CCCCCC3)CC2)c1 | inconclusive: 17.8 µM [inhibitor, partial curve] | –
19 | CCc1nnc2c3ccccc3nc(N3CCN(c4cc(C)ccc4C)CC3)n12 | inconclusive: 3.16 µM [inhibitor, full curve] | –
20 | COc1ccc(-c2cc(C3CCN(C(=O)OC(C)(C)C)CC3)[nH]n2)cc1 | inconclusive: 28.2 µM [inhibitor, partial curve] | –
21 | Cc1cc(N2CCCC(C(=O)Nc3cccc(Cl)c3)C2)n2ncnc2n1 (stereo not drawn) | – | inactive: -10.4%
22 | CSc1nc(SCC(=O)NC(c2ccccc2)c2ccccc2)c2c3c(sc2n1)CN(C)CC3 | inconclusive: 22.4 µM [inhibitor, partial curve] | –
23 | CC(CCc1ccco1)NC(=O)Nc1cccc(F)c1 (stereo not drawn) | inconclusive: 35.5 µM [inhibitor, single point] | –

Row | SMILES | Potency | activity change, negative = displacement
24 | O=C(COc1ccccc1[N+](=O)[O-])OCC(=O)N1CCC(Cc2ccccc2)CC1 | inconclusive: 56.2 µM [inhibitor, single point] | –
25 | CC1CN(C(=O)CCC(=O)NC(C)c2ccccc2)c2cc(Cl)ccc2O1 (stereo not drawn) | inconclusive: 35.5 µM [inhibitor, partial curve] | –
26 | CCOc1ccc(-c2ccc(SCC(=O)Nc3nnc(CC)s3)nn2)cc1 | – | inactive: -1.14%
27 | CCc1cc2c3c([nH]c2cc1S(=O)(=O)NCCCOC)CC(C)(C)CC3=O | – | inactive: -5.49%
28 | Cc1ccc(-c2ccc(=O)n(CC(=O)NCc3ccco3)n2)cc1 | active: 8.91 µM | –
29 | Oc1ccc(-c2c(-c3ccsc3)sc3ccccc23)cc1 | – | inactive: 1.51%
30 | Cc1c(C(=O)N(C)C)sc2c1c(=O)n(-c1ccc(Cl)c(Cl)c1)c(=O)n2CC(=O)Nc1ccc(Br)cc1F | inconclusive: 11.2 µM [inhibitor, partial curve] | –
31 | O=C(CC1N=C2c3ccccc3N=C(SCC(=O)Nc3ccc(F)cc3)N2C1=O)NCc1ccc2c(c1)OCO2 (stereo not drawn) | – | inactive: -22.3%
32 | Cc1cccc(NC(=S)N/N=C/c2cccc(O)c2)c1C | – | inactive: -3.94%
33 | Cc1ccc2cc(-c3noc(C(C)(C)C)n3)c(=O)[nH]c2c1 | – | inactive: -4.48%
34 | O=C(/C=C\c1ccccc1)NCC(=O)N/N=C/c1ccc(O)cc1O | inconclusive: 35.5 µM [inhibitor, single point] | –
35 | Cc1cc(C)cc(N(CC(=O)NCc2ccccc2Cl)S(=O)(=O)c2c(C)[nH]c(=O)[nH]c2=O)c1 | inconclusive: 25.1 µM [inhibitor, partial curve] | –
36 | Cc1noc(Cn2c(=O)c3ccccc3n(CC(=O)Nc3ccc(C(C)C)cc3)c2=O)n1 | – | inactive: -6.41%
37 | O=C(Cc1ccccc1)N1CCN=C1SCc1ccc([N+](=O)[O-])cc1 | inconclusive: 35.5 µM [inhibitor, partial curve] | –
38 | CCOC(=O)c1c(NC(=O)CSc2nnc(-c3ccccc3C)n2C)sc(C(C)=O)c1C | inconclusive: 28.2 µM [inhibitor, partial curve] | –
39 | Cc1ccc(S(=O)(=O)Nc2ccccc2C(=O)OC(C)C(=O)Nc2ccc3ccccc3c2)cc1[N+](=O)[O-] (stereo not drawn) | inconclusive: 39.8 µM [inhibitor, partial curve] | –
40 | CCCOc1ccc(CSC2=NCCN2)cc1[N+](=O)[O-] | inconclusive: 17.8 µM [inhibitor, partial curve] | –
41 | Cc1ccccc1-n1c(=O)/c(=C\c2ccco2)s/c1=C(/C#N)C(=O)Nc1ccccc1 | – | inactive: -9.36%
42 | COc1ccccc1/C=C/C(=O)NCC(=O)N/N=C/c1ccc2c(c1)OCO2 | inconclusive: 28.2 µM [inhibitor, partial curve] | –
43 | CCc1ccc(NC(=O)c2ccc(F)c(S(=O)(=O)NCCc3ccc(OC)c(OC)c3)c2)cc1 | inconclusive: 4.47 µM [inhibitor, full curve] | –
44 | CCCCc1ccc(NC(=O)Nc2cnccn2)cc1 | inconclusive: 11.2 µM [inhibitor, partial curve] | –
45 | NC(=O)c1cc(Br)cc2c3c([nH]c12)CCCC3 | inconclusive: 35.5 µM [inhibitor, partial curve] | –
46 | COc1cccc(Nc2sc(C(=O)c3ccc(Cl)cc3)c(N)c2C(=O)NCCc2ccc(OC)c(OC)c2)c1 | – | inactive: -9.78%

Row | SMILES | Potency | activity change, negative = displacement
47 | Oc1ccc(N=Nc2ccc3c(c2)OCCO3)c2ncccc12 | – | inactive: -10.2%
48 | O=C(Cc1ccc([N+](=O)[O-])cc1)OCc1c(F)cccc1Cl | inconclusive: 11.2 µM [inhibitor, partial curve] | –
49 | CCN(CC)CCCNC(=S)N(Cc1cccnc1)Cc1cc2cc(C)cc(C)c2[nH]c1=O | inconclusive: 22.4 µM [inhibitor, partial curve] | –
50 | C=CCN1C(=O)/C(=C2/Sc3ccc(OC)cc3N2C)SC1=Nc1ccccc1 | – | inactive: -0.409%
51 | O=C(c1ccccc1NS(=O)(=O)c1ccc(Br)s1)N1CCCC1 | – | inactive: 4.63%
52 | O=C(c1cc2cc(Br)ccc2o1)N1CCCCC1 | inconclusive: 28.2 µM [inhibitor, partial curve] | –
53 | NS(=O)(=O)c1cccc(NC(=O)COC(=O)CCSc2ccccc2)c1 | inconclusive: 50.1 µM [inhibitor, single point] | –
54 | CCSc1nnc(NC(=O)Cc2cccc(OC)c2)s1 | inconclusive: 35.5 µM [inhibitor, partial curve] | –
55 | FC(F)C(F)(F)c1cc(-c2ccc(Cl)cc2)n[nH]1 | – | inactive: -10.7%
56 | CC(C)N(C(=O)CSc1nc(COc2ccccc2)nc2ccccc12)C(C)C | inconclusive: 35.5 µM [inhibitor, partial curve] | –
57 | Cc1ccc(Cn2nc(C)c3cc(C(=O)OCC(N)=O)sc32)cc1 | inconclusive: 7.08 µM [inhibitor, full curve, poor fit] | –
58 | COc1ccc2c(C#N)c3ccccn3c2c1 | – | inactive: 160%
59 | O=C(c1cc(S(=O)(=O)N2CCCCC2)ccc1Cl)N1CCOCC1 | – | inactive: -8.16%
60 | COC(=O)c1cn(C(=O)c2ccc(OC)cc2)c2ccccc12 | inconclusive: 17.8 µM [inhibitor, partial curve] | –
61 | O=C(NN1CC(C(=O)OCc2ccccc2F)CC1=O)c1ccccc1 (stereo not drawn) | inconclusive: 3.98 µM [inhibitor, full curve] | –
62 | Cc1c(O)nc(SC2CC(=O)N(c3ccccc3)C2=O)[nH]c1=O (stereo not drawn) | inconclusive: 28.2 µM [inhibitor, partial curve] | –
63 | CCS(=O)(=O)c1ncc(Cl)c(C(=O)N(Cc2ccccc2)c2ccc(OC)cc2)n1 | – | inactive: -7.19%
64 | O=C1CC(c2ccco2)c2ccc3ccccc3c2N1 (stereo not drawn) | inconclusive: 14.1 µM [inhibitor, partial curve] | –
65 | Cc1ccc(Nc2nc(CSc3nnnn3-c3ccccc3)cc(=O)[nH]2)cc1 | inconclusive: 50.1 µM [inhibitor, single point] | –
66 | CCN(CC)S(=O)(=O)c1ccc(N)cc1 | inconclusive: 39.8 µM [inhibitor, single point] | –
67 | Cc1c2cnn(CC(=O)N3CCN(c4ccc(F)cc4)CC3)c(=O)c2c(C)n1Cc1ccccc1F | inconclusive: 7.08 µM [inhibitor, partial curve] | –
68 | Cc1nc(-c2ccccc2Cl)sc1C(=O)/C=C/N(C)C | inconclusive: 22.4 µM [inhibitor, partial curve] | –
